# Test results as given in article PMC10726135.
# Some of the results follow. At the low end of the ranking the order means little. Measured with an extract: partners may take part in the binding.
# Target: T1, HNF4alpha8 (COS-7 nuclear extract) (UniProt P41235-5)
# T1 sequence: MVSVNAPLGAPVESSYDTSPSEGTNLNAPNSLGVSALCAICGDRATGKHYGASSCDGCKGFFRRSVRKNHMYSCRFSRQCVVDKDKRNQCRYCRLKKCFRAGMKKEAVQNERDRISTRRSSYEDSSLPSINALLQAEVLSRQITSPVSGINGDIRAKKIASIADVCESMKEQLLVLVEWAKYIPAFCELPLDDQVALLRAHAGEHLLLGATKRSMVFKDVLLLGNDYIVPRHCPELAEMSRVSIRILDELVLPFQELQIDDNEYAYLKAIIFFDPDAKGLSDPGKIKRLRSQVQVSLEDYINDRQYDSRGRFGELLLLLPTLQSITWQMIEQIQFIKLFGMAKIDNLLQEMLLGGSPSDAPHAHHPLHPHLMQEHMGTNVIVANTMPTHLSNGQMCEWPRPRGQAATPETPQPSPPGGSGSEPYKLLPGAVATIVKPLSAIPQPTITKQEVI
# Assay: protein-binding microarray
# Conditions: COS-7 nuclear extract on double-stranded Agilent 4x180k PBM; binding buffer, salt, pH and temperature not given; high values mean tight binding; double strand, one strand shown; sequences stand for … in …GCCTAGGGAGATTAGAGTATCGGTCGA
row,Sequence,binding signal (log2 normalized intensity)
1,TGGACTTTGGTCCTGGTCAGACTTGCCACG,5.42
2,TCTCCTCCTCCCATTCCAGCTCTTTACTCA,0.177
3,TTAGCCCAGTGAGACCCATTTTGGACTTTG,7.42
4,AAGACATTGCCTGGCATTATCAGTGCTGCC,-0.907
5,TTACAAAAGAAGAAGATGATATGGTCAGTG,0.815
6,ACAATTTTCAAGAACAAACAAATTTAGCAA,-1.29
7,TTAATATATGAAGATGGGCATTAGGTGGAC,1.72
8,CACAGTGGGGCAGATCACAAGCACCCCCCA,4.06
9,GCTTCCAGTTAAGCAGGTTCACATTTTTGT,1.28
10,AACTTTGGACCACATATAGAGAAGCCAGGG,-1.33
11,AACAGGAATTCAAAGGTGCAAAGGTTAAAA,6.07
12,CGGGAATCTGACCTTTGGGACATTCCCCAG,5.52
13,ACCAGGGGGCAGAGTGAGCAGCACTTTTGG,-1.04
14,TGGATTACATACCCAAGTTCCCTCTCAGGA,-0.0575
15,GGGGTCTGGTTTCTAGGTAGATAAGGGAGT,0.189
16,ACTCTCTCTCTGTGTCACATACACCTGCGT,1.31
17,CTTACGGCCCTGTGGTGTTCGCTAAGATGT,0.705
18,AGCTGCCCTTTGCACATGCCCCTCCCAGGG,2.81
19,TCCTGTCCACCCTGAAAGAGAGGAGGCTGA,-1.3
20,CCAAATTCTTTTTTTTTTTTTTTTTTTTTT,3.27
21,AAAAATCTCACTCACCCTAAGCCCTGCTCA,-1.24
22,CAGACGGATTCCACGGGGGTGCAGCCAAGT,-1.34
23,CAAGGTAAACATGATGAAAGCAATGTTTGA,0.597
24,TGAAGTGAGTTGTTTGTTTTGAGATAGGGT,1.76

row,Sequence,binding signal (log2 normalized intensity)
1,CCCAGCCAGAATTCTCCCTGCAGTCCTCTG,-1.3
2,TGTACCCGTCCACCTTTGGATCCAGCTCCT,2.67
3,ACCCTGACTCTGCAGCCGAACCGGCACGGT,-1.4
4,GGAAATCCCGAAATAGAGCCAAACATGATA,-1.36
5,ATGCTGATGGGGACCACAGAGAACTAATCT,-1.31
6,GATGCTGGACTTCAGCCTCCAGAACTATGA,3.39
7,GAGAGGCTGCCATCCCACATTCCACAGACT,-1.16
8,GACGGCTAAGAGAAATCCACACAGCACTGA,-1.39
9,GCAAACACCTGGCCAGCGACTTTAGGGGCC,-1.32
10,AAGGTCAGTTTCTTTAAGACAAGTGTCCCT,1.67
11,GATCCAACTCTGAAGATTCACAGGTGGGAT,-1.41
12,ATATTATGTTTTGTTATCTGTGCCACAGGT,1.69
13,GTCCTGGTCACAGTAACAGGGAGTCTGTTG,0.503
14,CAAACACAGATAGCATAATCAAAGAGAAAA,-1.29
15,CCTCATCTGTGTAGAAATTGTGGCTTGTGT,1.82
16,CTGTGGTCTAGCTTGTTCTCTCCCCCAACC,4.34
17,GGACAGAGATAACTGGGGGCATAGCCCATG,-1.3
18,GAGGAGAATTGGCATTAATTCTTCTTTGAA,-1.14
19,GGTATCCACAGGAGGCCCCATCGCACGGCA,-1.39
20,GCGATCCGGGCTCCGGGCGCCGCGCGCGCC,-1.27
21,GAGGTGACTTGTCCTGAGATAAGTCACCTT,0.779
22,TAATCTGCTTCCAGTTCCATAATCCCCGAA,2.5
23,GACCTTGGCACTGAAGAATGTCTAAATCTG,0.616
